# Experimental data taken from PubChem BioAssay AID1347073 (National Center for Advancing Translational Sciences (NCATS), 2019).
# The whole screen tested about 45,000 compounds, of which about 200 (0.44%) were called active. Not shown: some 7% with an inconclusive outcome. The call rests on the fitted dose curve; in most records, active means well fitted activation curve with a large enough effect; inconclusive means small, poorly fitted or top-dose-only effect; inactive means no such curve, though single readings can be large or run the other way. This is one part of the list.
# Test: qHTS of TDP-43 Inhibitors: NCGC Sytravon Library Screen; further: 0% is about no effect; nearly all actives have a fitted effect of over 55% in size
# Settings: yeast TDP-43 toxicity rescue, BacTiter-Glo growth, 24 h; series mostly up to 46.1 µM; growth rescue (activation): at the top concentration
# Outline: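 TDP-43-expressing yeast, pregrown in raffinose, seeded at OD600 0.02 in galactose medium with compound for 24 hr at 30 deg C. Growth read by BacTiter-Glo luminescence, so rescue of toxicity appears as activation.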
Compound,Potency,growth rescue (activation)
CCN=c1scc(-c2ccc3c(c2)NC(=O)CO3)n1N=C1CCCC1,inactive,–
Cc1cccc(C)c1NC(=S)NCCCN1CCCC1=O,–,inactive: -8.76%
C=CCNC(=O)c1ccccc1NC(=O)C1COc2ccccc2O1 (stereo not drawn),–,inactive: 9.41%
Cc1ccc(-n2cc(C(=O)c3ccccc3O)cn2)cc1,–,inactive: 17.9%
COc1ccc(NC(=O)c2cc(Cl)ccc2Cl)c([N+](=O)[O-])c1,–,inactive: 11.3%
Cc1cccc(C)c1NC(=O)CN(c1ccccn1)S(=O)(=O)c1ccc(F)cc1,–,inactive: -11.1%
CCOC(=O)c1c(NC(C)=O)c2c3c(sc2n1Cc1nc(-c2cccc(Cl)c2)oc1C)CCCC3,–,inactive: 8.31%
c1ccc(CSc2ncnc3c2cnn3-c2ccccc2)cc1,–,inactive: 18.8%
COc1ccc(NC(=O)C(=O)NCCC2=CCCCC2)c(OC)c1,–,inactive: 20.8%
COC(=O)c1ccc(OC(=O)c2cccnc2)cc1,–,inactive: -10.2%
O=[N+]([O-])c1cc(Cl)ccc1N1CCOCC1,–,inactive: 4.97%
O=[N+]([O-])c1cccc(P(=O)(O)c2cccc([N+](=O)[O-])c2)c1,–,inactive: 4.78%
CCCCNS(=O)(=O)c1ccc(NC(=O)c2cccs2)cc1,–,inactive: 2.13%
COCC(C)NC(=O)Cc1ccc(F)cc1 (stereo not drawn),–,inactive: 5.41%
Cc1ccccc1OCc1nc2ccccc2c(=O)n1/N=C/c1cccc([N+](=O)[O-])c1,–,inactive: 14.6%
CC(=O)c1cccc(-c2ccnc3c2CC(C(=O)NC(C)C)O3)c1 (stereo not drawn),–,inactive: 14.7%
CC(C)CCn1c(=O)c2ccccc2n2c(CN3CCCC3)nnc12,–,inactive: 6.01%
CC1(C(=O)Nc2cccc(NS(C)(=O)=O)c2)CCN1CCc1ccccc1 (stereo not drawn),–,inactive: 4.83%
COC(=O)c1cc(N2C(=O)C3C4C=CC(CC4)C3C2=O)ccc1Cl (stereo not drawn),–,inactive: -15%
Cc1ccc(S(=O)(=O)N2CCOCC2)cc1NC(=O)COC(=O)c1ccc(Cl)nc1,–,inactive: 1.98%
CC(=O)Nc1ccc(S(=O)(=O)NCC(=O)Nc2ccc3c(c2)OCO3)cc1,–,inactive: 9.97%
Nc1cc(C(F)(F)F)cc2c1SCC(=O)N2,–,inactive: 23.2%
Cc1cccc(Cc2nnc(CCC(=O)N(CC3CC3)CC3CCCO3)o2)c1 (stereo not drawn),–,inactive: 13.5%

Compound,Potency,growth rescue (activation)
CC(=O)/C(=N/Nc1ccc(Br)cc1)Sc1cccc2cccnc12,–,inactive: 7.27%
CC(OC(=O)CCc1nc2ccccc2c(=O)[nH]1)C(=O)Nc1ncc(Cl)cc1Cl (stereo not drawn),–,inactive: 4.87%
CCc1nc2c(OCc3ccccc3C(=O)OC)cccn2c1N(C)C(=O)c1cccs1,–,inactive: 7.98%
CCOc1ccccc1NC(=S)N(CCC(C)C)C1CCN(C(C)=O)CC1,–,inactive: -6.67%
CCOC(=O)CCCCCN(Cc1ccccc1)S(=O)(=O)c1ccc([N+](=O)[O-])cc1,–,inactive: -7.9%
O=C(NCCc1ccccc1)c1cc([N+](=O)[O-])ccc1N1CCOCC1,–,inactive: 10.3%
COc1cc(C2C(C#N)=C(N)Oc3cc(C)oc(=O)c32)cc(OC)c1OC (stereo not drawn),–,inactive: -3.19%
COC(CC(=O)NNC(=S)Nc1ccccc1)OC,–,inactive: 1.93%
O=C(Nc1ccccc1C(=O)O)c1cccc(NC(=O)c2ccc(Br)o2)c1,–,inactive: -48.6%
COc1ccc(C(=O)N2CCCC(O)C2)cc1OC1CCN(C(C)C)CC1 (stereo not drawn),–,inactive: 9.43%
CC(C)c1nc(C#N)c(N2CCOCC2)o1,–,inactive: 20.5%
CCN(CC)S(=O)(=O)c1ccc(C)c(NC(=S)N2CCN(c3ccccn3)CC2)c1,–,inactive: -0.116%
Cc1ccc(SCCNC(=O)c2ccc(CN3CCOCC3)cc2)cc1,–,inactive: 6.51%
CC1CCCC(NC(=O)COC(=O)Cc2ccc(Br)cc2)C1C (stereo not drawn),–,inactive: 7.56%
O=C(CNS(=O)(=O)c1ccccc1)NNC(=O)C(Cl)Cl,–,inactive: -3.53%
CCNc1c(NC(=O)C2CCC(C)CC2)c(=O)oc2ccccc12 (stereo not drawn),–,inactive: 13.3%
Cc1ccc(CNC(=O)c2cc3c(s2)-c2ccccc2SC3)cc1,–,inactive: 9.04%
CCOc1ccc(NC(=O)Nc2ccccc2C(N)=O)cc1,–,inactive: -57.1%
CCc1ccc(N(C2C=CS(=O)(=O)C2)S(=O)(=O)c2ccccc2)cc1 (stereo not drawn),–,inactive: 11.4%
COc1ccc(/C=C(\C#N)C(=O)OCCNC(=O)c2ccncc2)cc1,–,inactive: 2.02%
CCOC(=O)c1cnc(Nc2nc3ccccc3o2)nc1CSC(=S)N(CC)CC,–,inactive: -3.65%
CC(C)COc1ccc(C(=O)Nc2cccc(-c3nc4ccccc4[nH]3)c2)cc1,–,inactive: 29.8%
CC1=CCC2C(=O)N(c3ccc(S(N)(=O)=O)cc3)C(=O)C2C1 (stereo not drawn),–,inactive: -14.2%

Compound,Potency,growth rescue (activation)
CCCC(=O)N1CCC1(C)C(=O)Nc1ncc(C(=O)OC)s1 (stereo not drawn),–,inactive: -5.77%
Cc1ccc(C(=O)N/C(=C\c2ccc(F)cc2)C(=O)NCCN2CCOCC2)cc1,–,inactive: -7.16%
O=C(/C=C/c1ccc(F)cc1)N1CC[C@@]2(O)CCCC[C@H]2C1,–,inactive: 0.994%
COc1ccc(S(=O)(=O)NC(C)C(=O)Nc2ccc3c(c2)OCO3)cc1OC (stereo not drawn),–,inactive: 2.47%
Oc1ccc(/C=N/NC(=S)Nc2cccnc2)c(O)c1,–,inactive: 11.5%
O=C(CN1C(=O)/C(=C2/SC(=S)N(CCS(=O)(=O)O)C2=O)c2ccccc21)Nc1cccc(Br)c1,–,inactive: 4.31%
O=C(NCC(=O)N(c1ccccc1F)C(C(=O)NC1CCCC1)c1cccnc1)c1ccco1 (stereo not drawn),–,inactive: -1.39%
O=C(NC1CCCCC1)C(c1ccccc1)N(Cc1cccnc1)C(=O)c1csnn1 (stereo not drawn),–,inactive: 9.91%
CCOP(=O)(OCC)/C(=N/OC(=O)c1ccc(Cl)cc1Cl)C(N)=O,–,inactive: -3.85%
CCc1nnc(NS(=O)(=O)c2ccccc2)s1,–,inactive: 20.6%
CCOCCOC(=O)c1[nH]c2c(c1C)C(=O)CC(c1cc(OC)c(OC)c(OC)c1)C2 (stereo not drawn),–,inactive: 16.6%
COc1ccc(CCNC(=O)Nc2ccc([N+](=O)[O-])cc2)cc1OC,–,inactive: 4.87%
CCN(CCN1CCCC1)C(=O)c1cc(COc2ccccc2SC)on1,–,inactive: -4.49%
Cc1ccccc1CNC(=O)C(=O)Nc1nccs1,–,inactive: 11.8%
Cc1ccc(S(=O)(=O)NC(=O)Nc2ccc(C)cn2)cc1,–,inactive: -0.0837%
COc1cccc(NC(=O)CN2C(=O)NC(Cc3c[nH]c4ccccc34)C2=O)c1 (stereo not drawn),–,inactive: -16.9%
CN(C(=O)CSc1nc2cc([N+](=O)[O-])ccc2n1-c1ccc(F)cc1)C1CCS(=O)(=O)C1 (stereo not drawn),–,inactive: -3.33%
COc1ccc(OC)c(C2C/C(=N/O)C(C)C(c3cc(OC)ccc3OC)N2)c1 (stereo not drawn),–,inactive: -6.32%
Cc1c(C2=CCN(S(=O)(=O)c3ccc(Cl)cc3)CC2)c2ccccc2n1C,–,inactive: 16%
CC(C)Nc1nc(-c2ccccn2)nc(-c2ccccc2)c1C#N,–,inactive: 7.26%
Cc1ccc2nc(SCC(=O)c3c(N)n(C)c(=O)n(C)c3=O)[nH]c2c1,–,inactive: 0.652%
C/C(Cn1nnc2ccccc21)=N/OC(=O)c1c(F)cccc1F,–,inactive: -0.194%
